Measurements from patent US5698411A, “Method for determining activity of enzymes in metabolically active whole cells” (priority 1995, dated 1997).

Tests used:
Type in all cases: cell-based, human
granulocytes = assay: ratio of enzyme activity in disease, granulocytes (Table 5)
lymphocytes = assay: ratio of enzyme activity in disease, lymphocytes (Table 5)
monocytes = assay: ratio of enzyme activity in disease, monocytes (Table 5)

| Compound | Dermatomyositis Ratio Grans (granulocytes) | Inflam. Dis. Grans (granulocytes) | JRA Ratio Grans (granulocytes) | Kawasaki's Dis. Grans (granulocytes) | Lupus Ratio Grans (granulocytes) | Rheumatic Fever Grans (granulocytes) | Inflam Dis Lymphs (lymphocytes) | also measured |
| --- | --- | --- | --- | --- | --- | --- | --- | --- |
| C[C@H](NC(=O)[C@@H](N)CCCCN)C(=O)Nc1ccc2c(c1)Oc1cc(NC(=O)[C@H](C)NC(=O)[C@@H](N)CCCCN)ccc1C21OC(=O)c2ccccc21 [KA, (Lys-Ala)2 Rho 110] | 1.16 | 0.05 | 0.10 | 0.99 | 1.64 | 1.02 |  | JRA Ratio Lymphs (lymphocytes): 0.10 |
| C[C@H](NC(=O)CNC(=O)[C@H](Cc1ccccc1)NC(=O)CN)C(=O)Nc1ccc2c(c1)Oc1cc(NC(=O)[C@H](C)NC(=O)CNC(=O)[C@H](Cc3ccccc3)NC(=O)CN)ccc1C21OC(=O)c2ccccc21 [GFGA, (Gly-Phe-Gly-Ala)2 Rho 110] (I: H-GFGA / II: H-GFGA; linker I:C-II:C via Rhodamine110) | 1.85 |  | 2.26 | 1.93 | 0.10 | 2.10 |  |  |
| O=C1OC2(c3ccc(OC4O[C@H](CO)[C@H](O)[C@H](O)[C@H]4O)cc3Oc3cc(OC4O[C@H](CO)[C@H](O)[C@H](O)[C@H]4O)ccc32)c2ccccc21 (stereo partly drawn) [GALAC, (D-galactose)2 fluorescein] | 1.76 |  | 3.42 | 2.32 | 1.01 | 1.16 | 1.40 |  |
| O=C(NCC(=O)N1CCC[C@H]1C(=O)Nc1ccc2c(c1)Oc1cc(NC(=O)[C@@H]3CCCN3C(=O)CNC(=O)OCc3ccccc3)ccc1C21OC(=O)c2ccccc21)OCc1ccccc1 [Z-GP, (carbobenzyloxycarbonyl-Gly-Pro)2 Rho 110] | 1.44 | 0.83 | 1.24 | 2.54 | 1.82 | 2.51 | 1.07 |  |
| CC(C)C[C@H](N)C(=O)Nc1ccc2c(c1)Oc1cc(NC(=O)[C@@H](N)CC(C)C)ccc1C21OC(=O)c2ccccc21 [LEU, (Leu)2 Rho 110] | 1.31 | 0.58 | 1.43 | 0.33 | 2.03 | 0.98 |  | JRA Ratio Lymphs (lymphocytes): 1.64 |
| CC(C)[C@H](N)C(=O)N[C@@H](CCCCN)C(=O)Nc1ccc2c(c1)Oc1cc(NC(=O)[C@H](CCCCN)NC(=O)[C@@H](N)C(C)C)ccc1C21OC(=O)c2ccccc21 [VK-M, (Val-Lys)2 Rho 110 (modified)] | 0.15 | 3.39 | 9.49 | 0.72 | 0.89 | 0.48 | 4.64 |  |
| N=C(N)NCCC[C@H](N)C(=O)NCC(=O)N[C@@H](CCC(=O)O)C(=O)N[C@@H](CO)C(=O)Nc1ccc2c(c1)Oc1cc(NC(=O)[C@H](CO)NC(=O)[C@H](CCC(=O)O)NC(=O)CNC(=O)[C@@H](N)CCCNC(=N)N)ccc1C21OC(=O)c2ccccc21 (stereo partly drawn) [RGES, (Arg-Gly-Glu-Ser)2 Rho 110] (I: H-RGES / II: H-RGES; linker I:C-II:C via Rhodamine110) | 1.62 | 0.76 | 1.01 | 0.36 | 1.36 | 1.54 | 1.23 |  |
| C[C@H](N)C(=O)Nc1ccc2c(c1)Oc1cc(NC(=O)[C@H](C)N)ccc1C21OC(=O)c2ccccc21 [ALA, (Ala)2 Rho 110] | 0.97 | 0.80 | 1.21 | 1.31 | 1.08 | 1.03 |  |  |
| CC(C)[C@H](N)C(=O)N[C@@H](CCCCN)C(=O)Nc1ccc2c(c1)Oc1cc(NC(=O)[C@H](CCCCN)NC(=O)[C@@H](N)C(C)C)ccc1C21OC(=O)c2ccccc21 [VK, (Val-Lys)2 Rho 110] | 1.12 | 0.85 | 1.26 | 1.30 | 1.04 | 0.60 | 1.29 |  |
| O=C1OC2(c3ccc(OC4O[C@H](CO)[C@@H](O)[C@H](O)[C@H]4O)cc3Oc3cc(OC4O[C@H](CO)[C@@H](O)[C@H](O)[C@H]4O)ccc32)c2ccccc21 (stereo partly drawn) [DGLUC, (D-glucose)2 fluorescein] | 1.18 | 0.38 | 0.98 | 0.22 | 0.77 | 0.13 | 0.45 | Inflam. Dis. Monos (monocytes; monos): 0.28 |
| CC(=O)Oc1ccc2c(c1)Oc1cc(OC(C)=O)ccc1C21OC(=O)c2ccccc21 [FDA-NAF, fluorescein diacetate, reference compound] | 0.97 | 0.08 | 0.23 | 0.39 | 0.72 | 0.80 |  | Kawasaki's Ratio Dis. Lymphs (lymphocytes): 0.30 |
| O=C(NCC(=O)N1CCC[C@H]1C(=O)Nc1ccc2c(c1)Oc1cc(NC(=O)[C@@H]3CCCN3C(=O)CNC(=O)OCc3ccccc3)ccc1C21OC(=O)c2ccccc21)OCc1ccccc1 [Z-GP-M, (carbobenzyloxycarbonyl-Gly-Pro)2 Rho 110 (modified)] | 2.76 | 0.66 | 1.46 | 2.83 | 1.94 | 2.98 | 1.04 |  |
| (Gly)2 Rho 110 | 1.12 | 0.17 | 0.30 | 2.30 | 1.42 | 0.56 | 0.16 | Dermatomyositis Ratio Monos (monocytes; Dermatomyositis, monos): 1.01; Inflam. Bowel Dis. Lymphs (monocytes; Inflam. Bowel Dis., MONOCYTES section): 1.84; Inflam. Dis. Monos (monocytes; monos): 0.35; JRA Ratio Monos (monocytes; JRA, monos): 1.11; Kawasaki's Dis. Monos (monocytes; Kawasaki's, monos): 3.83; Lupus Ratio Monos (monocytes; Lupus, monos): 6.00; Rheumatic Fever Monos (monocytes; monos): 2.06; Inflam. Bowel Dis. Lymphs (granulocytes; Inflam. Bowel Dis., […]): 1.78; Dermatomyositis Ratio Lymphs (lymphocytes; Dermatomyositis): 1.30; Inflam. Bowel Dis. Lymphs (lymphocytes; Inflam. Bowel Dis.): 1.97; JRA Ratio Lymphs (lymphocytes): 0.17; Kawasaki's Ratio Dis. Lymphs (lymphocytes): 1.94; Lupus Ratio Lymphs (lymphocytes): 1.64; Rheumatic Fever Lymphs (lymphocytes): 2.09 |
| O=C1OC2(c3ccc(OP(=O)(O)O)cc3Oc3cc(OP(=O)(O)O)ccc32)c2ccccc21 [DPO4, (PO4)2 fluorescein] | 0.88 | 0.38 | 0.98 | 0.69 | 0.71 | 0.24 |  | Lupus Ratio Lymphs (lymphocytes): 0.90 |
| CC(=O)Oc1ccc2c(c1)Oc1cc(OC(C)=O)ccc1C21OC(=O)c2ccccc21 [FDA, fluorescein diacetate, reference compound] | 0.92 | 0.50 | 1.12 | 0.31 | 1.01 | 0.67 |  | Rheumatic Fever Monos (monocytes; monos): 0.53; Rheumatic Fever Lymphs (lymphocytes): 0.90 |
| C[C@@H](O)[C@H](NC(=O)OCc1ccccc1)C(=O)N1CCC[C@H]1C(=O)Nc1ccc2c(c1)Oc1cc(NC(=O)[C@@H]3CCCN3C(=O)[C@@H](NC(=O)OCc3ccccc3)[C@@H](C)O)ccc1C21OC(=O)c2ccccc21 [Z-TP6.5, (carbobenzyloxycarbonyl-Thr-Pro)2 Rho 110 (pH 6.5)] | 2.79 |  | 5.70 | 4.21 | 2.19 | 4.73 | 1.71 |  |

Numbered stars: 1 amine (or outer) side, 2 acyl side, 3 side chain; on linkers, the order of the positions; unused ones are H or OH. Bridge positions count the residues as written; N and C are the ends. Peptide text beside a SMILES is read from it. I, II: the chains in the order shown. Rhodamine110 = O=C1OC2(c3ccc(N[*:1])cc3Oc3cc(N[*:2])ccc32)c2ccccc21
